The target of test [1] is itchy E3 ubiquitin protein ligase (ITCH) (human (endogenous in HeLa)) (UniProt Q96J02). In words: co-IP; immunoprecipitation of ITCH or MCL1, blot for USP9X and CEP131 (Supplementary Fig. 10b); cells not given.
The target in the next test is MCL1 (UniProt Q07820). The test is described as above.
For a further test, the target named is T1, CEP131/wt (human) (UniProt Q9UPN4).
T1 sequence: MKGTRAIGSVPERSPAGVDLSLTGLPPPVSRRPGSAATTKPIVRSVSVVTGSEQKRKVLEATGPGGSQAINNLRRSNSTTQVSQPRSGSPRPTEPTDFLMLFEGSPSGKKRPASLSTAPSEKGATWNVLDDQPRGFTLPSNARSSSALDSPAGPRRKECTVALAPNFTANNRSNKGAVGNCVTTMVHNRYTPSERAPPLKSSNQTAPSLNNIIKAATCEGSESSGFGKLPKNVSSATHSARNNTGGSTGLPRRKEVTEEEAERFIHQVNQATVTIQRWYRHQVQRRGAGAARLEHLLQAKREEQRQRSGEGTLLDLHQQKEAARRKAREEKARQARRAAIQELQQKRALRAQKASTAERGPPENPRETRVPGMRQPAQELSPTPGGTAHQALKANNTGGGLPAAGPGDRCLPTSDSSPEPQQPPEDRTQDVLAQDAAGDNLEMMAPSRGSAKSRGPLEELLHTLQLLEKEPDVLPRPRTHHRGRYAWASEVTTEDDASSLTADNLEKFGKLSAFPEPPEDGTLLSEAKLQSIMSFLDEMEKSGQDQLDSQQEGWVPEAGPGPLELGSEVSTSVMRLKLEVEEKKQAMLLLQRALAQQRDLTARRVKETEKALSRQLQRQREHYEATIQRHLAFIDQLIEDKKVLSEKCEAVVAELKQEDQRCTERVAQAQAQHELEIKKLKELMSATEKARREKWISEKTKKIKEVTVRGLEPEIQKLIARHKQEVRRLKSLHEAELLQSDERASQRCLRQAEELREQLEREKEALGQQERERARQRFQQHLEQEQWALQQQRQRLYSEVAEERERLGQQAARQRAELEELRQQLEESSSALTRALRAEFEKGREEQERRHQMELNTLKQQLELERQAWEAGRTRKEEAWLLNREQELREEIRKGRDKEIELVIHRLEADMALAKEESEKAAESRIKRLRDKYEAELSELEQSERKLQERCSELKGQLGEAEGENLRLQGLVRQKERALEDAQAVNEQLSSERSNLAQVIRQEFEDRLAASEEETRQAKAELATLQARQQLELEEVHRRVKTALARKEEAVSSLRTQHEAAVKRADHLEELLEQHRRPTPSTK
In words: co-IP; association of USP9X with CEP131/wt or CEP131/K254R (Fig. 4h, left panel); cells and tags not stated.

Sequences of proteins named here, by UniProt entry; tags and fusion partners are left off.
UniProt Q96J02: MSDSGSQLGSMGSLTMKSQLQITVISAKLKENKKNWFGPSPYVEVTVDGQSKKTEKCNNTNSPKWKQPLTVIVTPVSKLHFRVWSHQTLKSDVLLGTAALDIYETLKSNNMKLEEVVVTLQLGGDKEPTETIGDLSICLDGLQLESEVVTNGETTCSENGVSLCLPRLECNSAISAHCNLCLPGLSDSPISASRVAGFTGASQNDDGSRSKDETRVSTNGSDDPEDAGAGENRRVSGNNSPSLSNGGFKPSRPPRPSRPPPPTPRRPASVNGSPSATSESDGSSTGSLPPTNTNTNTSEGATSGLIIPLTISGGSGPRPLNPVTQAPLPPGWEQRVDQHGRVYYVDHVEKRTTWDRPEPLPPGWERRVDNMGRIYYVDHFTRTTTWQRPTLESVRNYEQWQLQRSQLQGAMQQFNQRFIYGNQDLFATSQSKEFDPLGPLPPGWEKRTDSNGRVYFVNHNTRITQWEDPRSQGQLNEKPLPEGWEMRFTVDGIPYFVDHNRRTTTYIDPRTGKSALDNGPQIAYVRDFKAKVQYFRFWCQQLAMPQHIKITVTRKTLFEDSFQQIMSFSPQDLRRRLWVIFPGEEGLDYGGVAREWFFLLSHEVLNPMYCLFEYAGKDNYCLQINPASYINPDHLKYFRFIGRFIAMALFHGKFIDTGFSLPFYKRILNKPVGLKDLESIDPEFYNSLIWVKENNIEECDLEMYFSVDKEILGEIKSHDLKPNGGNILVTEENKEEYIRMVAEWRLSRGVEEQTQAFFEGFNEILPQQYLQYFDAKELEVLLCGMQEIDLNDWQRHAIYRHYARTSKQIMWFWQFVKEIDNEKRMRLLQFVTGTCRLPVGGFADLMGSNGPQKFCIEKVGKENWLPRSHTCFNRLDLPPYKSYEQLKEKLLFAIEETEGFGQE
UniProt Q07820: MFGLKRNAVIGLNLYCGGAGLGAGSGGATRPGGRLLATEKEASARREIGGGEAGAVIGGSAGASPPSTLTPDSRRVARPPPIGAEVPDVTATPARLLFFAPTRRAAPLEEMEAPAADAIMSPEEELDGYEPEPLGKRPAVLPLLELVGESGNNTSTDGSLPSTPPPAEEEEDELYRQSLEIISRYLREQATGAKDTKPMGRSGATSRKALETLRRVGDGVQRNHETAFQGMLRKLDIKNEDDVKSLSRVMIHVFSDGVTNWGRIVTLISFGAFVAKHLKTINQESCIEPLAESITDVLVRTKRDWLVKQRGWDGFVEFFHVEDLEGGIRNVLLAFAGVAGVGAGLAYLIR
UniProt O43303: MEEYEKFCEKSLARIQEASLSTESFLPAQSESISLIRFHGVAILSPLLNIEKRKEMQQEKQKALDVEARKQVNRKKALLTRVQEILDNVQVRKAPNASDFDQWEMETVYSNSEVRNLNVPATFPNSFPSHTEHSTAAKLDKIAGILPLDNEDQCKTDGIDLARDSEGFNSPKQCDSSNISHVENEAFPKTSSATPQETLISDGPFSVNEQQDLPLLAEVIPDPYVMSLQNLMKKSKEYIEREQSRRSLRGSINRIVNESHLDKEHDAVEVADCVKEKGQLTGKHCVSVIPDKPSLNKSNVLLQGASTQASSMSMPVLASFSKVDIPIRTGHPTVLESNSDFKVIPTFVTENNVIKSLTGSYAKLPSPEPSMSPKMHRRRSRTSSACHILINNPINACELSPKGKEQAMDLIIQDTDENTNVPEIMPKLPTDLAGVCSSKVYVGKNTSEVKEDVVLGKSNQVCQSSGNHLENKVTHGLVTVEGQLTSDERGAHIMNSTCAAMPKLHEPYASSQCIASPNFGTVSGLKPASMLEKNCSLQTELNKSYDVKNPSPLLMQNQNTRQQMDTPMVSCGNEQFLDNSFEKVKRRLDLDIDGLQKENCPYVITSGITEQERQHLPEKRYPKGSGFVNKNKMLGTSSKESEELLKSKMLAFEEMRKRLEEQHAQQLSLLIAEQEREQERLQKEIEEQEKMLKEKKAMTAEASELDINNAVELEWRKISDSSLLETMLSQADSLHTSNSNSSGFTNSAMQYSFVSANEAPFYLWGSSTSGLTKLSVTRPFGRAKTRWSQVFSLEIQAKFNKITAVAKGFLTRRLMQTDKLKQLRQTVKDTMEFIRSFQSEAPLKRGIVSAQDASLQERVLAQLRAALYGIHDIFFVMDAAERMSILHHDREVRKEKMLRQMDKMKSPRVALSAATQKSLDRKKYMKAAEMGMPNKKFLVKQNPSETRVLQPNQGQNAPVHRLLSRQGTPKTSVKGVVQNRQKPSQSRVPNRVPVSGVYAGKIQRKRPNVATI

The next test concerns the target T2, CEP131/K254R (human) (UniProt Q9UPN4).
T2 sequence: T1 sequence with K254R
The test is described as above.

Test [2] deals with CP110, centrosomal protein, endogenous (human (endogenous in HeLa, MCF-7, HEK293T, U2OS)) (UniProt O43303). In words: co-IP; endogenous proteins; whole-cell lysates of HeLa, MCF-7, HEK293T and U2OS cells in NETN buffer (50 mM Tris-HCl pH 8.0, 150 mM NaCl, 0.2% Nonidet P-40, 2 mM EDTA); protein G magnetic beads; immunoblot; also U2OS cells synchronized by double-thymidine block and released (association detected primarily in S and G2 phases). In general terms: A western blot detects proteins with antibodies after separation by electrophoresis.

For test [3], the target named is T3, CEP131, centriolar satellite protein, endogenous (human (endogenous in HeLa, MCF-7, HEK293T, U2OS)) (UniProt Q9UPN4).
T3 sequence: T1 sequence
Described as above.

Another test concerns the target T4, FLAG-CEP131 (human) (UniProt Q9UPN4).
T4 sequence: T1 sequence
Description: SEC; FLAG-CEP131 anti-FLAG affinity eluate from HeLa cells fractionated on Superose 6 gel filtration; fractions immunoblotted (Supplementary Fig. 1b). For orientation: Size exclusion chromatography separates by hydrodynamic size, large species first.

For test [4], the target named is T5, GST-CEP131, full length (human) (UniProt Q9UPN4).
T5 sequence: T1 sequence
In words: pull-down; GST-tagged CEP131 (full length or deletion mutants) purified from bacteria with His-tagged USP9X deletion mutants purified from Sf9 cells; which was held on beads is not stated; both purified.

Numbering of substitutions follows the chain as printed. Results are given in words; binding and its absence hold for the method and conditions named. For some of these results: In cells and extracts the contact can be indirect. Some entries that bind do so weakly or less than the wild type. For some of these results: Tags and fused reporters may be left off the sequences shown.

Binding data for three molecules are collected here from paper PMC5380967.

In the case of “ubiquitin-specific peptidase 9, X-linked (USP9X), endogenous (from UniProt Q93008 1-2554) (enzyme)”, the binding result is reported as “binds” in test [1]; “binds” with MCL1; “binds” in the test with CEP131/wt (human); “binds” in the test with CEP131/K254R (human); “no binding” in test [2]; “binds” in test [3]. Further, the binding result with FLAG-CEP131 (human) was “binds”.

B1: USP33, deubiquitinase, endogenous (enzyme, UniProt Q8TEY7 1-942)
chain: MTGSNSHITILTLKVLPHFESLGKQEKIPNKMSAFRNHCPHLDSVGEITKEDLIQKSLGTCQDCKVQGPNLWACLENRCSYVGCGESQVDHSTIHSQETKHYLTVNLTTLRVWCYACSKEVFLDRKLGTQPSLPHVRQPHQIQENSVQDFKIPSNTTLKTPLVAVFDDLDIEADEEDELRARGLTGLKNIGNTCYMNAALQALSNCPPLTQFFLDCGGLARTDKKPAICKSYLKLMTELWHKSRPGSVVPTTLFQGIKTVNPTFRGYSQQDAQEFLRCLMDLLHEELKEQVMEVEEDPQTITTEETMEEDKSQSDVDFQSCESCSNSDRAENENGSRCFSEDNNETTMLIQDDENNSEMSKDWQKEKMCNKINKVNSEGEFDKDRDSISETVDLNNQETVKVQIHSRASEYITDVHSNDLSTPQILPSNEGVNPRLSASPPKSGNLWPGLAPPHKKAQSASPKRKKQHKKYRSVISDIFDGTIISSVQCLTCDRVSVTLETFQDLSLPIPGKEDLAKLHSSSHPTSIVKAGSCGEAYAPQGWIAFFMEYVKRFVVSCVPSWFWGPVVTLQDCLAAFFARDELKGDNMYSCEKCKKLRNGVKFCKVQNFPEILCIHLKRFRHELMFSTKISTHVSFPLEGLDLQPFLAKDSPAQIVTYDLLSVICHHGTASSGHYIAYCRNNLNNLWYEFDDQSVTEVSESTVQNAEAYVLFYRKSSEEAQKERRRISNLLNIMEPSLLQFYISRQWLNKFKTFAEPGPISNNDFLCIHGGVPPRKAGYIEDLVLMLPQNIWDNLYSRYGGGPAVNHLYICHTCQIEAEKIEKRRKTELEIFIRLNRAFQKEDSPATFYCISMQWFREWESFVKGKDGDPPGPIDNTKIAVTKCGNVMLRQGADSGQISEETWNFLQSIYGGGPEVILRPPVVHVDPDILQAEEKIEVETRSL
As to B1, the binding entry in test [2] is given as “binds”; with FLAG-CEP131 (human) it was “no binding”.

B2: His-tagged USP9X/M (domain or fragment, UniProt Q93008 611-1553)
chain: ALVTLVAENLATYMESMRLYARDHEDYDPQTVRLGSRYSHVQEVQERLNFLRFLLKDGQLWLCAPQAKQIWKCLAENAVYLCDREACFKWYSKLMGDEPDLDPDINKDFFESNVLQLDPSLLTENGMKCFERFFKAVNCREGKLVAKRRAYMMDDLELIGLDYLWRVVIQSNDDIASRAIDLLKEIYTNLGPRLQVNQVVIHEDFIQSCFDRLKASYDTLCVLDGDKDSVNCARQEAVRMVRVLTVLREYINECDSDYHEERTILPMSRAFRGKHLSFVVRFPNQGRQVDDLEVWSHTNDTIGSVRRCILNRIKANVAHTKIELFVGGELIDPADDRKLIGQLNLKDKSLITAKLTQISSNMPSSPDSSSDSSTGSPGNHGNHYSDGPNPEVESCLPGVIMSLHPRYISFLWQVADLGSSLNMPPLRDGARVLMKLMPPDSTTIEKLRAICLDHAKLGESSLSPSLDSLFFGPSASQVLYLTEVVYALLMPAGAPLADDSSDFQFHFLKSGGLPLVLSMLTRNNFLPNADMETRRGAYLNALKIAKLLLTAIGYGHVRAVAEACQPGVEGVNPMTQINQVTHDQAVVLQSALQSIPNPSSECMLRNVSVRLAQQISDEASRYMPDICVIRAIQKIIWASGCGSLQLVFSPNEEITKIYEKTNAGNEPDLEDEQVCCEALEVMTLCFALIPTALDALSKEKAWQTFIIDLLLHCHSKTVRQVAQEQFFLMCTRCCMGHRPLLFFITLLFTVLGSTARERAKHSGDYFTLLRHLLNYAYNSNINVPNAEVLLNNEIDWLKRIRDDVKRTGETGIEETILEGHLGVTKELLAFQTSEKKFHIGCEKGGANLIKELIDDFIFPASNVYLQYMRNGELPAEQAIPVCGSPPTINAGFELLVALAVGCVRNLKQIVDSLTEMYYIGTAITTCEALTEWEYLPPVGPRPP
Turning to B2, the binding entry in test [4] is reported as “binds”.
